Reference: PubChem BioAssay AID624171 (National Center for Advancing Translational Sciences (NCATS), 2012)
Several values for one entry are separate records, joined by “and”; a condition that tells them apart may be missing. Identical values can stand only once. Among all 410,000 compounds or so, about 1,200 (0.29%) were called active. Inconclusive means that the source gave no clear call. Such entries were picked first, then a sample of the others. Calls follow the shape of the dose curve; as a rule, active = well fitted activation curve with a large enough effect; inconclusive = small, poorly fitted or top-dose-only effect; inactive = flat fitted curve, though single readings scatter. A potency beside an inconclusive call is a rough fit, not a confirmed value.

Assay: qHTS of Nrf2 Activators; also: nearly all actives have a fitted effect of over 65% in size
Details: AREc32 ARE-luciferase reporter (MCF7-derived line), luminescence, 24 h; series mostly up to 46.1 µM
Summary of the method: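 Quantitative high-throughput format: AREc32 reporter cells, 1000 per well, received compound by pin transfer and were incubated 24 hr at 37 deg C, 5% CO2, before Steady-Glo luminescence detection.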
Potency is read from the fitted curve at half-maximal effect; tags tell the direction and shape of the fitted curve.

Row | Structure (SMILES) | Potency
1 | CC1=CC(=O)C(C(C)C)=C/C1=N/OS(=O)(=O)c1ccccc1 | inconclusive: 2.24 µM [activator, partial curve, poor fit]
2 | COC1=C(OC)C(=O)C(Sc2ccc3ccccc3c2)=CC1=O | inconclusive: 15.8 µM [activator, partial curve, poor fit]
3 | Cn1c(=O)c([N+](=O)[O-])c(Oc2ccccc2)c2ccccc21 | inconclusive: 14.1 µM [activator, single point]
4 | COCCn1c(=NC(=O)c2cc(Cl)sc2Cl)sc2cc(S(N)(=O)=O)ccc21 | inconclusive: 2 µM [activator, full curve, poor fit]
5 | O=C(O)c1ccccc1Sc1c([N+](=O)[O-])cc(C(F)(F)F)cc1[N+](=O)[O-] | inconclusive: 22.4 µM [activator, single point]
6 | CC(/C=C/c1ccc(Cl)o1)=C\C(=O)O | inconclusive: 28.2 µM [activator, single point]
7 | O=C(CSc1c2c(nc3ccccc13)CCC2)N1CCCC1 | inconclusive: 25.1 µM [activator, single point]
8 | COc1ccc(N2C(=O)C(Cl)=C(Nc3ccccc3O)C2=O)cc1 | inconclusive: 11.2 µM [activator, partial curve, poor fit]
9 | CC(=O)N(/C=C1\SC(=S)N(c2ccccc2)C1=O)c1ccccc1 | inactive
10 | CC(C)(C)OC(=O)N1CCC(c2c(C(=O)NC3CCCCC3)cnn2-c2ccc(F)cc2F)CC1 | inactive
11 | C[C@H](CO)N1C[C@H](C)[C@H](CN(C)CC2CCCCC2)Oc2ccc(NS(=O)(=O)c3ccc(F)cc3)cc2CC1=O | inactive
12 | N#C/C(=C\c1ccc(-c2nc3ccccc3s2)o1)C(N)=O | active: 11.2 µM
13 | Nc1c2c(nc3ccc(Br)cc13)N(Cc1ccccc1)CC2 | inactive
14 | COc1ccccc1N1CCN(C(=O)CN2C(=O)COc3ccc(S(=O)(=O)N4CCOCC4)cc32)CC1 | inactive
15 | Cc1ccc(-c2nn3c(C)nnc3c3ccccc23)cc1S(=O)(=O)NCC(C)O (stereo unspecified) | inconclusive: 22.4 µM [activator, single point]
16 | Cc1ccc2cccc(NC(=S)NC(=O)c3ccn(C)n3)c2n1 | inconclusive: 10 µM [activator, partial curve]
17 | COc1cc(NC(=O)CSc2c3c(nc4ccccc24)CCC3)cc(OC)c1OC | inconclusive: 28.2 µM [activator, single point] and inconclusive: 25.1 µM [activator, single point]
18 | CCC1=C/C(=C/c2sc3ccccc3[n+]2CC)CC(C)(C)C1 | inconclusive: 31.6 µM [activator, single point]
19 | CN1/C(=C\C(=O)c2cncc(Br)c2)C(C)(C)c2ccccc21 | inactive
20 | CC(C)(C)CC(=O)Nc1nnc(-c2cccs2)s1 | inconclusive: 31.6 µM [activator, single point]
21 | O=C(Nc1ccccc1)c1nc[nH]c1C(=O)Nc1ccccc1F | inconclusive: 5.01 µM [activator, full curve]
22 | COc1ccc(NC(=O)/C(Cl)=C(/Cl)S(=O)(=O)Cc2ccc(C)cc2)cn1 | inconclusive: 1.78 µM [activator, partial curve, poor fit]
23 | Cc1cc(C)cc(NC(=O)Cc2noc3ccccc23)c1 | inactive
24 | Cc1cc(C)cc(NC(=O)C(Cc2ccccc2)NS(=O)(=O)c2ccc3c(c2)CCC(=O)N3)c1 (stereo unspecified) | inactive

Row | Structure (SMILES) | Potency
25 | OCc1cnc(SCc2ccccc2F)n1Cc1ccc(F)cc1 | inactive
26 | O=C1c2cccc3c([N+](=O)[O-])ccc(c23)C(=O)N1CCc1ccccn1 | inconclusive: 20 µM [activator, single point]
27 | CCc1c(C)sc2c1CCN(Cc1ccccc1F)C2c1ccccc1 (stereo unspecified) | inactive
28 | Cc1cccn2c(=O)c3cc(C(=O)NCCc4ccccc4)c(=N)n(Cc4ccco4)c3nc12 | inconclusive: 3.16 µM [activator, full curve, poor fit]
29 | CC1(C(=O)NS(=O)(=O)c2ccc(Cl)s2)CCN1C(=O)c1ccccc1CCc1ccccc1 (stereo unspecified) | inactive
30 | CNc1nc(N)c([N+](=O)[O-])c(Nc2cccc(Cl)c2)n1 | inconclusive: 2.51 µM [activator, full curve, poor fit]
31 | O=C(Nc1cc(S(=O)(=O)N2CCOCC2)ccc1N1CCCC1)c1ccc(Cl)cc1 | inactive
32 | CC(C)c1[nH]nc2c1C(C1C=CCCC1)C(C#N)=C(N)O2 (stereo unspecified) | inconclusive: 31.6 µM [activator, single point]
33 | FC(F)(F)c1cc(-c2ccco2)nc(NCc2ccco2)n1 | active: 10 µM
34 | COCCOc1ccc(C(F)(F)F)cc1NC(=O)c1ccc(C)cc1 | active: 11.2 µM
35 | Cc1ccc(/C=C/c2nnc(-c3ccccc3)o2)cc1 | inactive
36 | O=C(O)c1ccccc1N=Nc1ccc(O)cc1 | inconclusive: 31.6 µM [activator, single point]
37 | COc1cccc(Nc2nc(N)nc(CCl)n2)c1 | active: 12.6 µM
38 | c1ccc(C2=Nc3ccccc3OC2)cc1 | inconclusive: 15.8 µM [activator, single point]
39 | O=[N+]([O-])c1ccc(S(=O)Cc2ccccc2)c([N+](=O)[O-])c1 (stereo unspecified) | inconclusive: 5.01 µM [activator, single point]
40 | N#CC(C#N)=C(Nc1ccc(F)cc1)SCc1cccc(Br)c1 | inconclusive: 17.8 µM [activator, single point]
41 | Cc1ccc2c(COC(=O)c3ccccc3Br)cc(=O)oc2c1 | inconclusive: 10 µM [activator, partial curve, poor fit]
42 | O=C(Nc1ccc(Cl)cn1)Nc1ccccc1F | inconclusive: 5.62 µM [activator, partial curve]
43 | COc1ccc(C(=O)OCc2c(-c3ccccc3)ncc3ccccc23)cc1 | inactive
44 | Nn1c(SCc2nc3ccccn3c2Br)nnc1-c1cccnc1 | inconclusive: 15.8 µM [activator, partial curve, poor fit]
45 | COC(=O)c1ccc([C@H]2CC(=O)O2)cc1 | inconclusive: 17.8 µM [activator, single point]
46 | c1ccc(CN2CCN(c3nc(-c4ccccc4)nc(-n4ccnc4)n3)CC2)cc1 | inactive
47 | CC1CCN(C(=O)Cn2c(-c3cccs3)cc3cc(Cl)ccc32)CC1 | inactive
48 | CC(=NNC(=S)Nc1ccccc1Cl)c1ccccn1 | inactive

Row | Structure (SMILES) | Potency
49 | CCN1CCN(Cc2c(O)ccc3oc(C)c(C(=O)Nc4cccc(C(F)(F)F)c4)c23)CC1 | inactive
50 | CC1CC(C)CN(CCCNC(=O)c2cc3c(=O)[nH]c4ccccc4c3n2C)C1 (stereo unspecified) | inactive
51 | CCOc1cc(NC(=O)CCl)c(OCC)cc1NC(=O)CCl | active: 7.08 µM
52 | COc1ccc2cc(-c3ccsc3)ncc2c1 | inconclusive: 2.82 µM [activator, full curve, poor fit]
53 | CCC(CC)C1C(C#N)=C(N)Oc2n[nH]c(C)c21 (stereo unspecified) | inconclusive: 20 µM [activator, single point]
54 | O=C1/C(=C/c2cccc(Br)c2)SC(=S)N1CCC(=O)N(CCO)c1ccccc1 | active: 12.6 µM
55 | COc1ccccc1CNC(=O)CSc1ncc(S(=O)(=O)c2ccc(C)c(Cl)c2)c(=O)[nH]1 | inactive
56 | CCOC(=O)c1c(NC(=O)COC(=O)Cc2ccccc2[N+](=O)[O-])sc(C(=O)N(C)C)c1C | inactive
57 | Cc1c(C(=O)Nc2ccccc2[N+](=O)[O-])csc1-c1ccccc1 | inconclusive: 14.1 µM [activator, partial curve, poor fit]
58 | O=C(COC(=O)/C=C/c1cn(-c2ccccc2)nc1-c1ccc2c(c1)OCCO2)NC1CCS(=O)(=O)C1 (stereo unspecified) | inactive
59 | Cc1ccsc1C(=O)N1CCCC(CO)(Cc2ccccc2F)C1 (stereo unspecified) | inactive
60 | Cc1c(N=C2C=C(Br)C(=O)C(Br)=C2)c(=O)n(-c2ccccc2)n1C | inconclusive: 25.1 µM [activator, single point]
61 | O=C(Nc1cccc2ccccc12)c1onc2c1CCCC2 | active: 12.6 µM
62 | Cc1cc(NC(=O)CSc2nc3ccsc3c(=O)n2NC(=O)c2ccccc2)no1 | inconclusive: 10 µM [activator, partial curve]
63 | Cc1cc(C)c2nc(N(Cc3cccnc3)C(=O)CCS(=O)(=O)c3ccccc3)sc2c1 | inconclusive: 3.16 µM [activator, single point]
64 | C[C@H]1Oc2ccccc2C(=O)C1C(=O)c1ccccc1 (stereo partly specified) | inconclusive: 11.2 µM [activator, partial curve, poor fit]
65 | N#C/C(=C\c1ccccc1[N+](=O)[O-])C(=O)NC1CCCCC1 | inconclusive: 35.5 µM [activator, single point]
66 | N/C(=N\OC(=O)c1ccccc1)c1cccnc1 | inconclusive: 15.8 µM [activator, partial curve, poor fit]
67 | N#Cc1c(-c2ccccc2)cc(-c2ccccc2)[nH]c1=O | inconclusive: 5.62 µM [activator, full curve]
68 | O=C(CCl)Nc1ccc(Sc2ccc(NC(=O)CCl)cc2)cc1 | inconclusive: 3.16 µM [activator, partial curve, poor fit]
69 | O=C(O)C1CC(c2ccccc2)=Nc2ccccc2S1 (stereo unspecified) | inconclusive: 7.94 µM [activator, partial curve, poor fit]
70 | COc1cccc(/C=C2\CCCCC2=O)c1 | inconclusive: 31.6 µM [activator, single point]
71 | O=C(CCN1CCN(C(=O)c2ccccc2)CC1)c1ccc(Br)cc1 | inconclusive: 28.2 µM [activator, single point]
